The results in this text go back to the supplement of paper PMC11876631.

B1: lptG F68D (protein)
chain: MQPFGVLDRYIGKTIFTTIMMTLFMLVSLSGIIKFVDQLKKAGQGSYDALGAGMYTLLSVPKDVQIFDPMAALLGALLGLGMLAQRSELVVMQASGFTRMQVALSVMKTAIPLVLLTMAIGEWVAPQGEQMARNYRAQAMYGGSLLSTQQGLWAKDGNNFVYIERVKGDEELGGISIYAFNENRRLQSVRYAATAKFDPEHKVWRLSQVDESDLTNPKQITGSQTVSGTWKTNLTPDKLGVVALDPDALSISGLHNYVKYLKSSGQDAGRYQLNMWSKIFQPLSVAVMMLMALSFIFGPLRSVPMGVRVVTGISFGFVFYVLDQIFGPLTLVYGIPPIIGALLPSASFFLISLWLLMRKS
B2: lptG F68P (protein)
chain: MQPFGVLDRYIGKTIFTTIMMTLFMLVSLSGIIKFVDQLKKAGQGSYDALGAGMYTLLSVPKDVQIFPPMAALLGALLGLGMLAQRSELVVMQASGFTRMQVALSVMKTAIPLVLLTMAIGEWVAPQGEQMARNYRAQAMYGGSLLSTQQGLWAKDGNNFVYIERVKGDEELGGISIYAFNENRRLQSVRYAATAKFDPEHKVWRLSQVDESDLTNPKQITGSQTVSGTWKTNLTPDKLGVVALDPDALSISGLHNYVKYLKSSGQDAGRYQLNMWSKIFQPLSVAVMMLMALSFIFGPLRSVPMGVRVVTGISFGFVFYVLDQIFGPLTLVYGIPPIIGALLPSASFFLISLWLLMRKS
B3: lptG L77D (protein)
chain: MQPFGVLDRYIGKTIFTTIMMTLFMLVSLSGIIKFVDQLKKAGQGSYDALGAGMYTLLSVPKDVQIFFPMAALLGADLGLGMLAQRSELVVMQASGFTRMQVALSVMKTAIPLVLLTMAIGEWVAPQGEQMARNYRAQAMYGGSLLSTQQGLWAKDGNNFVYIERVKGDEELGGISIYAFNENRRLQSVRYAATAKFDPEHKVWRLSQVDESDLTNPKQITGSQTVSGTWKTNLTPDKLGVVALDPDALSISGLHNYVKYLKSSGQDAGRYQLNMWSKIFQPLSVAVMMLMALSFIFGPLRSVPMGVRVVTGISFGFVFYVLDQIFGPLTLVYGIPPIIGALLPSASFFLISLWLLMRKS
B4: lptG L77W (protein)
chain: MQPFGVLDRYIGKTIFTTIMMTLFMLVSLSGIIKFVDQLKKAGQGSYDALGAGMYTLLSVPKDVQIFFPMAALLGAWLGLGMLAQRSELVVMQASGFTRMQVALSVMKTAIPLVLLTMAIGEWVAPQGEQMARNYRAQAMYGGSLLSTQQGLWAKDGNNFVYIERVKGDEELGGISIYAFNENRRLQSVRYAATAKFDPEHKVWRLSQVDESDLTNPKQITGSQTVSGTWKTNLTPDKLGVVALDPDALSISGLHNYVKYLKSSGQDAGRYQLNMWSKIFQPLSVAVMMLMALSFIFGPLRSVPMGVRVVTGISFGFVFYVLDQIFGPLTLVYGIPPIIGALLPSASFFLISLWLLMRKS
B5: lptG L77Q (protein)
chain: MQPFGVLDRYIGKTIFTTIMMTLFMLVSLSGIIKFVDQLKKAGQGSYDALGAGMYTLLSVPKDVQIFFPMAALLGAQLGLGMLAQRSELVVMQASGFTRMQVALSVMKTAIPLVLLTMAIGEWVAPQGEQMARNYRAQAMYGGSLLSTQQGLWAKDGNNFVYIERVKGDEELGGISIYAFNENRRLQSVRYAATAKFDPEHKVWRLSQVDESDLTNPKQITGSQTVSGTWKTNLTPDKLGVVALDPDALSISGLHNYVKYLKSSGQDAGRYQLNMWSKIFQPLSVAVMMLMALSFIFGPLRSVPMGVRVVTGISFGFVFYVLDQIFGPLTLVYGIPPIIGALLPSASFFLISLWLLMRKS
B6: lptG L77P (protein)
chain: MQPFGVLDRYIGKTIFTTIMMTLFMLVSLSGIIKFVDQLKKAGQGSYDALGAGMYTLLSVPKDVQIFFPMAALLGAPLGLGMLAQRSELVVMQASGFTRMQVALSVMKTAIPLVLLTMAIGEWVAPQGEQMARNYRAQAMYGGSLLSTQQGLWAKDGNNFVYIERVKGDEELGGISIYAFNENRRLQSVRYAATAKFDPEHKVWRLSQVDESDLTNPKQITGSQTVSGTWKTNLTPDKLGVVALDPDALSISGLHNYVKYLKSSGQDAGRYQLNMWSKIFQPLSVAVMMLMALSFIFGPLRSVPMGVRVVTGISFGFVFYVLDQIFGPLTLVYGIPPIIGALLPSASFFLISLWLLMRKS
B7: lptG L77A (protein)
chain: MQPFGVLDRYIGKTIFTTIMMTLFMLVSLSGIIKFVDQLKKAGQGSYDALGAGMYTLLSVPKDVQIFFPMAALLGAALGLGMLAQRSELVVMQASGFTRMQVALSVMKTAIPLVLLTMAIGEWVAPQGEQMARNYRAQAMYGGSLLSTQQGLWAKDGNNFVYIERVKGDEELGGISIYAFNENRRLQSVRYAATAKFDPEHKVWRLSQVDESDLTNPKQITGSQTVSGTWKTNLTPDKLGVVALDPDALSISGLHNYVKYLKSSGQDAGRYQLNMWSKIFQPLSVAVMMLMALSFIFGPLRSVPMGVRVVTGISFGFVFYVLDQIFGPLTLVYGIPPIIGALLPSASFFLISLWLLMRKS

± gives the standard deviation of the averaged measurements. Laboratory Escherichia coli strains with one amino-acid change in an essential protein, pooled on minimal glucose agar with carbenicillin or gentamicin at twice the control MIC (plus kanamycin and chloramphenicol for the plasmids), 48 h. Fold change of barcode share against drug-free plates; higher = less susceptible. Active = above 20 in both replicates (the paper's putatively resistant). '<' = one read or none on drug, '>' = one read or none on a drug-free plate. Shares are relative, so most strains fall below 1 when a few take over. Listed are strains with at least 15 reads on both drug-free plates, and hits; most hits rest on fewer reference reads. Replicate rank correlation about 0.5. Edits are read from barcodes.

One data set has as its target Escherichia coli (laboratory strain). Nature of the data set: barcode share on antibiotic plates over drug-free plates; higher = less susceptible. Conditions: antibiotic: carbenicillin; 2× MIC (3.1 µg/mL). The method, then: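 A pool of E. coli strains, each edited to carry one amino-acid change in an essential protein, was grown for 48 h on minimal glucose agar with or without antibiotic; strain barcodes were sequenced; mean of two replicates.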
For the protein B1, the “fold change of barcode share” value is 0.558 ± 0.011.
Still for that read-out and setting: the same measure for B2: 0.381 ± 0.053; for B3: 0.407 ± 0.12.
The same measure, in the same setting: the same measure for B4: 0.601 ± 0.052; for B5: 0.487 ± 0.18.
Turning to B6, the “fold change of barcode share” value is 0.275 ± 0.089.
On to B7, for which the “fold change of barcode share” value is 0.514 ± 0.1.

The data set is the same for the next values; noted with them: antibiotic: gentamicin; 2× MIC (MIC 0.45 µg/mL).
Consider B1, for which the “fold change of barcode share” value stood at 0.0623 ± 0.08.
For the protein B2, the “fold change of barcode share” value is 0.074 ± 0.099.
Same read-out and setting: the same measure for B3: 0.00197 ± 0.00043; for B4: 0.00378 ± 0.0035.
Consider B5, for which the “fold change of barcode share” value was 0.00969 ± 0.0047.
Same read-out and setting: the same measure for B6: under 0.00519; for B7: 0.00314 ± 0.0027.
